{
  "source": "the supplement of paper PMC8728848",
  "binders": {"B1": {"name": "Gal 8 (Homo sapiens), O00214_1 (protein)", "chain": "MMLSLNNLQNIIYNPVIPFVGTIPDQLDPGTLIVIRGHVPSDADRFQVDLQNGSSMKPRADVAFHFNPRFKRAGCIVCNTLINEKWGREEITYDTPFKREKSFEIVIMVLKDKFQVAVNGKHTLLYGHRIGPEKIDTLGIYGKVNIHSIGFSFSSDLQSTQASSLELTEISRENVPKSGTPQLRLPFAARLNTPMGPGRTVVVKGEVNANAKSFNVDLLAGKSKDIALHLNPRLNIKAFVRNSFLQESWGEEERNITSFPFSPGMYFEMIIYCDVREFKVAVNGVHSLEYKHRFKELSSIDTLEINGDIHLLEVRSW"}},
  "experiment_in_all_cases": "glycan array binding signal (z-score within array); higher = stronger binding",
  "conditions_in_all_cases": "glycan notation: IUPAC condensed, linker removed",
  "key": {"Gal4S6S(b1-4)GlcNAc": {"target": "Gal4S6S(b1-4)GlcNAc", "summary_of_the_method": "(§1)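 The binding signal is a Z-score computed within each array. Data were drawn from 3228 arrays in the Consortium for Functional Glycomics database, restricted to those with a known protein sequence. Scores were averaged over arrays of the same protein sequence at different concentrations or buffers, and over linkers, and negative values can be taken as non-binding.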"}, "Gal6P(b1-4)GlcNAc": {"target": "Gal6P(b1-4)GlcNAc", "summary_of_the_method": "as §1"}, "Gal6S(b1-3)GlcNAc": {"target": "Gal6S(b1-3)GlcNAc", "summary_of_the_method": "as §1"}, "Gal6S(b1-3)GlcNAc6S": {"target": "Gal6S(b1-3)GlcNAc6S", "summary_of_the_method": "as §1"}, "Gal6S(b1-4)Glc": {"target": "Gal6S(b1-4)Glc", "summary_of_the_method": "as §1"}, "Gal6S(b1-4)Glc6S": {"target": "Gal6S(b1-4)Glc6S", "summary_of_the_method": "as §1"}, "Gal6S(b1-4)GlcNAc": {"target": "Gal6S(b1-4)GlcNAc", "summary_of_the_method": "as §1"}, "Gal6S(b1-4)GlcNAc6S": {"target": "Gal6S(b1-4)GlcNAc6S", "summary_of_the_method": "as §1"}, "GalNAc(a1-3)Gal": {"target": "GalNAc(a1-3)Gal", "summary_of_the_method": "as §1"}, "GalNAc(a1-3)GalNAc": {"target": "GalNAc(a1-3)GalNAc", "summary_of_the_method": "as §1"}, "[1]": {"target": "GalNAc(a1-3)GalNAc(b1-3)Gal(a1-4)Gal(b1-4)Glc", "summary_of_the_method": "as §1"}, "[2]": {"target": "GalNAc(a1-3)GalNAc(b1-3)Gal(a1-4)Gal(b1-4)GlcNAc", "summary_of_the_method": "as §1"}, "GalNAc(b1-3)Gal": {"target": "GalNAc(b1-3)Gal", "summary_of_the_method": "as §1"}, "[3]": {"target": "GalNAc(b1-3)Gal(a1-4)Gal(b1-4)GlcNAc", "summary_of_the_method": "as §1"}, "[4]": {"target": "GalNAc(b1-3)Gal(a1-4)Gal(b1-4)GlcNAc(b1-3)Gal(b1-4)Glc", "summary_of_the_method": "as §1"}, "[5]": {"target": "GalNAc(b1-3)Gal(a1-6)Gal(b1-4)Glc", "summary_of_the_method": "as §1"}, "GalNAc(b1-3)GalNAc": {"target": "GalNAc(b1-3)GalNAc", "summary_of_the_method": "as §1"}, "GalNAc(b1-4)Gal(b1-4)Glc": {"target": "GalNAc(b1-4)Gal(b1-4)Glc", "summary_of_the_method": "as §1"}, "GalNAc(b1-4)GlcNAc": {"target": "GalNAc(b1-4)GlcNAc", "summary_of_the_method": "as §1"}, "[6]": {"target": "GalNAc(b1-4)GlcNAc(b1-2)Man(a1-3)[GalNAc(b1-4)GlcNAc(b1-2)Man(a1-6)]Man(b1-4)GlcNAc(b1-4)GlcNAc", "summary_of_the_method": "as §1"}, "GalNAc(b1-4)GlcNAc6S": {"target": "GalNAc(b1-4)GlcNAc6S", "summary_of_the_method": "as §1"}, "GalNAc(b1-6)GalNAc": {"target": "GalNAc(b1-6)GalNAc", "summary_of_the_method": "as §1"}, "GalNAc3S(b1-4)GlcNAc": {"target": "GalNAc3S(b1-4)GlcNAc", "summary_of_the_method": "as §1"}, "GalNAc3S(b1-4)GlcNAc3S": {"target": "GalNAc3S(b1-4)GlcNAc3S", "summary_of_the_method": "as §1"}, "GalNAc4S6S(b1-4)GlcNAc": {"target": "GalNAc4S6S(b1-4)GlcNAc", "summary_of_the_method": "as §1"}, "GalNAc6S(b1-4)GlcNAc": {"target": "GalNAc6S(b1-4)GlcNAc", "summary_of_the_method": "as §1"}, "Glc(a1-4)Glc": {"target": "Glc(a1-4)Glc", "summary_of_the_method": "as §1"}, "[7]": {"target": "Glc(a1-4)Glc(a1-4)Glc(a1-4)Glc", "summary_of_the_method": "as §1"}, "Glc(a1-6)Glc(a1-6)Glc": {"target": "Glc(a1-6)Glc(a1-6)Glc", "summary_of_the_method": "as §1"}, "[8]": {"target": "Glc(a1-6)Glc(a1-6)Glc(a1-6)Glc", "summary_of_the_method": "as §1"}, "Glc(b1-4)Glc": {"target": "Glc(b1-4)Glc", "summary_of_the_method": "as §1"}, "Glc(b1-6)Glc": {"target": "Glc(b1-6)Glc", "summary_of_the_method": "as §1"}, "GlcA(b1-3)Gal": {"target": "GlcA(b1-3)Gal", "summary_of_the_method": "as §1"}, "GlcA(b1-3)GlcNAc": {"target": "GlcA(b1-3)GlcNAc", "summary_of_the_method": "as §1"}, "GlcA(b1-6)Gal": {"target": "GlcA(b1-6)Gal", "summary_of_the_method": "as §1"}, "[9]": {"target": "GlcNAc(a1-3)Gal(b1-4)GlcNAc", "summary_of_the_method": "as §1"}, "[10]": {"target": "GlcNAc(a1-4)Gal(b1-3)GlcNAc", "summary_of_the_method": "as §1"}, "[11]": {"target": "GlcNAc(a1-4)Gal(b1-4)GalNAc", "summary_of_the_method": "as §1"}},
  "note": "Some of the results follow.",
  "data": [
    {"binder": "B1", "values": [
      {"measurement": "glycan array binding signal (z-score)", "setting": "Gal4S6S(b1-4)GlcNAc", "result": -0.24},
      {"measurement": "glycan array binding signal (z-score)", "setting": "Gal6P(b1-4)GlcNAc", "result": -0.201},
      {"measurement": "glycan array binding signal (z-score)", "setting": "Gal6S(b1-3)GlcNAc", "result": -0.234},
      {"measurement": "glycan array binding signal (z-score)", "setting": "Gal6S(b1-3)GlcNAc6S", "result": -0.24},
      {"measurement": "glycan array binding signal (z-score)", "setting": "Gal6S(b1-4)Glc", "result": -0.019},
      {"measurement": "glycan array binding signal (z-score)", "setting": "Gal6S(b1-4)Glc6S", "result": -0.094},
      {"measurement": "glycan array binding signal (z-score)", "setting": "Gal6S(b1-4)GlcNAc", "result": -0.172},
      {"measurement": "glycan array binding signal (z-score)", "setting": "Gal6S(b1-4)GlcNAc6S", "result": -0.226},
      {"measurement": "glycan array binding signal (z-score)", "setting": "GalNAc(a1-3)Gal", "result": 0.204},
      {"measurement": "glycan array binding signal (z-score)", "setting": "GalNAc(a1-3)GalNAc", "result": -0.221},
      {"measurement": "glycan array binding signal (z-score)", "setting": "[1]", "result": 0.604},
      {"measurement": "glycan array binding signal (z-score)", "setting": "[2]", "result": 0.738},
      {"measurement": "glycan array binding signal (z-score)", "setting": "GalNAc(b1-3)Gal", "result": -0.179},
      {"measurement": "glycan array binding signal (z-score)", "setting": "[3]", "result": -0.21},
      {"measurement": "glycan array binding signal (z-score)", "setting": "[4]", "result": 1.41},
      {"measurement": "glycan array binding signal (z-score)", "setting": "[5]", "result": -0.188},
      {"measurement": "glycan array binding signal (z-score)", "setting": "GalNAc(b1-3)GalNAc", "result": -0.176},
      {"measurement": "glycan array binding signal (z-score)", "setting": "GalNAc(b1-4)Gal(b1-4)Glc", "result": -0.201},
      {"measurement": "glycan array binding signal (z-score)", "setting": "GalNAc(b1-4)GlcNAc", "result": -0.171},
      {"measurement": "glycan array binding signal (z-score)", "setting": "[6]", "result": -0.517},
      {"measurement": "glycan array binding signal (z-score)", "setting": "GalNAc(b1-4)GlcNAc6S", "result": -0.223},
      {"measurement": "glycan array binding signal (z-score)", "setting": "GalNAc(b1-6)GalNAc", "result": -0.257},
      {"measurement": "glycan array binding signal (z-score)", "setting": "GalNAc3S(b1-4)GlcNAc", "result": -0.209},
      {"measurement": "glycan array binding signal (z-score)", "setting": "GalNAc3S(b1-4)GlcNAc3S", "result": -0.241},
      {"measurement": "glycan array binding signal (z-score)", "setting": "GalNAc4S6S(b1-4)GlcNAc", "result": -0.248},
      {"measurement": "glycan array binding signal (z-score)", "setting": "GalNAc6S(b1-4)GlcNAc", "result": -0.215},
      {"measurement": "glycan array binding signal (z-score)", "setting": "Glc(a1-4)Glc", "result": -0.214},
      {"measurement": "glycan array binding signal (z-score)", "setting": "[7]", "result": -0.217},
      {"measurement": "glycan array binding signal (z-score)", "setting": "Glc(a1-6)Glc(a1-6)Glc", "result": -0.22},
      {"measurement": "glycan array binding signal (z-score)", "setting": "[8]", "result": -0.23},
      {"measurement": "glycan array binding signal (z-score)", "setting": "Glc(b1-4)Glc", "result": 0.078},
      {"measurement": "glycan array binding signal (z-score)", "setting": "Glc(b1-6)Glc", "result": -0.234},
      {"measurement": "glycan array binding signal (z-score)", "setting": "GlcA(b1-3)Gal", "result": -0.219},
      {"measurement": "glycan array binding signal (z-score)", "setting": "GlcA(b1-3)GlcNAc", "result": -0.286},
      {"measurement": "glycan array binding signal (z-score)", "setting": "GlcA(b1-6)Gal", "result": -0.202},
      {"measurement": "glycan array binding signal (z-score)", "setting": "[9]", "result": -0.107},
      {"measurement": "glycan array binding signal (z-score)", "setting": "[10]", "result": -0.204},
      {"measurement": "glycan array binding signal (z-score)", "setting": "[11]", "result": -0.169}
    ]}
  ]
}
